# Measurements reported in the supplement of paper PMC8728848.
# This is one part of the list.
# Columns and labels:
# Experiment in all cases: glycan array binding signal (z-score within array); higher = stronger binding
# Details in all cases: glycan notation: IUPAC condensed, linker removed
# [1] = target: GlcNAc(b1-2)Gal(b1-3)GalNAc
# How it was run: (§1)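 The Consortium for Functional Glycomics database supplied 3228 glycan arrays, of which those lacking an available protein sequence were dropped. The binding signal, a within-array Z-score, was averaged across arrays of the same protein sequence and across linkers. Negative scores can be read as non-binding.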
# [2] = target: GlcNAc(b1-2)Man(a1-3)[GlcNAc(b1-2)Man(a1-6)]Man(b1-4)GlcNAc(b1-4)GlcNAc
# How it was run: as §1
# [3] = target: GlcNAc(b1-2)Man(a1-3)[GlcNAc(b1-2)Man(a1-6)]Man(b1-4)GlcNAc(b1-4)[Fuc(a1-6)]GlcNAc
# How it was run: as §1
# [4] = target: GlcNAc(b1-2)Man(a1-3)[GlcNAc(b1-4)][GlcNAc(b1-2)Man(a1-6)]Man(b1-4)GlcNAc(b1-4)GlcNAc
# How it was run: as §1
# [5] = target: GlcNAc(b1-2)Man(a1-3)[GlcNAc(b1-4)][GlcNAc(b1-2)Man(a1-6)]Man(b1-4)GlcNAc(b1-4)[Fuc(a1-6)]GlcNAc
# How it was run: as §1
# [6] = target: GlcNAc(b1-2)[GlcNAc(b1-4)]Man(a1-3)[GlcNAc(b1-2)Man(a1-6)]Man(b1-4)GlcNAc(b1-4)GlcNAc
# How it was run: as §1
# [7] = target: GlcNAc(b1-2)[GlcNAc(b1-4)]Man(a1-3)[GlcNAc(b1-4)][GlcNAc(b1-2)Man(a1-6)]Man(b1-4)GlcNAc(b1-4)GlcNAc
# How it was run: as §1
# [8] = target: GlcNAc(b1-2)[GlcNAc(b1-4)]Man(a1-3)[GlcNAc(b1-4)][GlcNAc(b1-2)[GlcNAc(b1-6)]Man(a1-6)]Man(b1-4)GlcNAc(b1-4)GlcNAc
# How it was run: as §1
# [9] = target: GlcNAc(b1-2)[GlcNAc(b1-4)]Man(a1-3)[GlcNAc(b1-4)][GlcNAc(b1-2)[GlcNAc(b1-6)]Man(a1-6)]Man(b1-4)GlcNAc(b1-4)[Fuc(a1-6)]GlcNAc
# How it was run: as §1
# [10] = target: GlcNAc(b1-2)[GlcNAc(b1-6)]Man(a1-6)[GlcNAc(b1-2)Man(a1-3)]Man(b1-4)GlcNAc(b1-4)GlcNAc
# How it was run: as §1
# [11] = target: GlcNAc(b1-2)[GlcNAc(b1-6)]Man(a1-6)[GlcNAc(b1-2)Man(a1-3)]Man(b1-4)GlcNAc(b1-4)[Fuc(a1-6)]GlcNAc
# How it was run: as §1
# [12] = target: GlcNAc(b1-2)[GlcNAc(b1-6)]Man(a1-6)[GlcNAc(b1-4)][GlcNAc(b1-2)Man(a1-3)]Man(b1-4)GlcNAc(b1-4)GlcNAc
# How it was run: as §1
# GlcNAc(b1-3)Fuc = target: GlcNAc(b1-3)Fuc
# How it was run: as §1
# GlcNAc(b1-3)Gal = target: GlcNAc(b1-3)Gal
# How it was run: as §1
# [13] = target: GlcNAc(b1-3)Gal(b1-3)GalNAc
# How it was run: as §1
# GlcNAc(b1-3)Gal(b1-4)Glc = target: GlcNAc(b1-3)Gal(b1-4)Glc
# How it was run: as §1
# [14] = target: GlcNAc(b1-3)Gal(b1-4)GlcNAc
# How it was run: as §1
# [15] = target: GlcNAc(b1-3)Gal(b1-4)GlcNAc(b1-2)Man(a1-3)[GlcNAc(b1-3)Gal(b1-4)GlcNAc(b1-2)Man(a1-6)]Man(b1-4)GlcNAc(b1-4)GlcNAc
# How it was run: as §1
# [16] = target: GlcNAc(b1-3)Gal(b1-4)GlcNAc(b1-2)Man(a1-3)[GlcNAc(b1-3)Gal(b1-4)GlcNAc(b1-2)Man(a1-6)]Man(b1-4)GlcNAc(b1-4)[Fuc(a1-6)]GlcNAc
# How it was run: as §1
# [17] = target: GlcNAc(b1-3)Gal(b1-4)GlcNAc(b1-2)[GlcNAc(b1-3)Gal(b1-4)GlcNAc(b1-6)]Man(a1-6)[GlcNAc(b1-3)Gal(b1-4)GlcNAc(b1-2)Man(a1-3)]Man(b1-4)GlcNAc(b1-4)GlcNAc
# How it was run: as §1
# [18] = target: GlcNAc(b1-3)Gal(b1-4)GlcNAc(b1-3)Gal(b1-4)GlcNAc
# How it was run: as §1
# [19] = target: GlcNAc(b1-3)Gal(b1-4)GlcNAc(b1-3)Gal(b1-4)GlcNAc(b1-2)Man(a1-3)[GlcNAc(b1-3)Gal(b1-4)GlcNAc(b1-3)Gal(b1-4)GlcNAc(b1-2)Man(a1-6)]Man(b1-4)GlcNAc(b1-4)GlcNAc
# How it was run: as §1
# [20] = target: GlcNAc(b1-3)Gal(b1-4)GlcNAc(b1-3)Gal(b1-4)GlcNAc(b1-2)Man(a1-3)[GlcNAc(b1-3)Gal(b1-4)GlcNAc(b1-3)Gal(b1-4)GlcNAc(b1-2)Man(a1-6)]Man(b1-4)GlcNAc(b1-4)[Fuc(a1-6)]GlcNAc
# How it was run: as §1
# [21] = target: GlcNAc(b1-3)Gal(b1-4)GlcNAc(b1-3)Gal(b1-4)GlcNAc(b1-2)[GlcNAc(b1-3)Gal(b1-4)GlcNAc(b1-3)Gal(b1-4)GlcNAc(b1-6)]Man(a1-6)[GlcNAc(b1-3)Gal(b1-4)GlcNAc(b1-3)Gal(b1-4)GlcNAc(b1-2)Man(a1-3)]Man(b1-4)GlcNAc(b1-4)[Fuc(a1-6)]GlcNAc
# How it was run: as §1
# [22] = target: GlcNAc(b1-3)Gal(b1-4)GlcNAc(b1-3)Gal(b1-4)GlcNAc(b1-3)Gal(b1-4)GlcNAc(b1-2)Man(a1-3)[GlcNAc(b1-3)Gal(b1-4)GlcNAc(b1-3)Gal(b1-4)GlcNAc(b1-3)Gal(b1-4)GlcNAc(b1-2)Man(a1-6)]Man(b1-4)GlcNAc(b1-4)GlcNAc
# How it was run: as §1
# [23] = target: GlcNAc(b1-3)Gal(b1-4)GlcNAc(b1-3)Gal(b1-4)GlcNAc(b1-3)Gal(b1-4)GlcNAc(b1-2)Man(a1-3)[GlcNAc(b1-3)Gal(b1-4)GlcNAc(b1-3)Gal(b1-4)GlcNAc(b1-3)Gal(b1-4)GlcNAc(b1-2)Man(a1-6)]Man(b1-4)GlcNAc(b1-4)[Fuc(a1-6)]GlcNAc
# How it was run: as §1
# [24] = target: GlcNAc(b1-3)Gal(b1-4)GlcNAc(b1-3)Gal(b1-4)GlcNAc(b1-3)Gal(b1-4)GlcNAc(b1-2)[GlcNAc(b1-3)Gal(b1-4)GlcNAc(b1-3)Gal(b1-4)GlcNAc(b1-3)Gal(b1-4)GlcNAc(b1-6)]Man(a1-6)[GlcNAc(b1-3)Gal(b1-4)GlcNAc(b1-3)Gal(b1-4)GlcNAc(b1-3)Gal(b1-4)GlcNAc(b1-2)Man(a1-3)]Man(b1-4)GlcNAc(b1-4)[Fuc(a1-6)]GlcNAc
# How it was run: as §1
# [25] = target: GlcNAc(b1-3)Gal(b1-4)GlcNAc(b1-3)Gal(b1-4)GlcNAc(b1-3)Gal(b1-4)GlcNAc(b1-3)Gal(b1-4)GlcNAc(b1-2)Man(a1-3)[GlcNAc(b1-3)Gal(b1-4)GlcNAc(b1-3)Gal(b1-4)GlcNAc(b1-3)Gal(b1-4)GlcNAc(b1-3)Gal(b1-4)GlcNAc(b1-2)Man(a1-6)]Man(b1-4)GlcNAc(b1-4)GlcNAc
# How it was run: as §1
# [26] = target: GlcNAc(b1-3)Gal(b1-4)GlcNAc(b1-3)Gal(b1-4)GlcNAc(b1-3)Gal(b1-4)GlcNAc(b1-3)Gal(b1-4)GlcNAc(b1-2)Man(a1-3)[GlcNAc(b1-3)Gal(b1-4)GlcNAc(b1-3)Gal(b1-4)GlcNAc(b1-3)Gal(b1-4)GlcNAc(b1-3)Gal(b1-4)GlcNAc(b1-2)Man(a1-6)]Man(b1-4)GlcNAc(b1-4)[Fuc(a1-6)]GlcNAc
# How it was run: as §1
# [27] = target: GlcNAc(b1-3)Gal(b1-4)GlcNAc(b1-3)Gal(b1-4)GlcNAc(b1-3)Gal(b1-4)GlcNAc(b1-3)Gal(b1-4)GlcNAc(b1-2)[GlcNAc(b1-3)Gal(b1-4)GlcNAc(b1-3)Gal(b1-4)GlcNAc(b1-3)Gal(b1-4)GlcNAc(b1-3)Gal(b1-4)GlcNAc(b1-6)]Man(a1-6)[GlcNAc(b1-3)Gal(b1-4)GlcNAc(b1-3)Gal(b1-4)GlcNAc(b1-3)Gal(b1-4)GlcNAc(b1-3)Gal(b1-4)GlcNAc(b1-2)Man(a1-3)]Man(b1-4)GlcNAc(b1-4)[Fuc(a1-6)]GlcNAc
# How it was run: as §1
# [28] = target: GlcNAc(b1-3)Gal(b1-4)GlcNAc(b1-3)Gal(b1-4)GlcNAc(b1-3)GalNAc
# How it was run: as §1
# [29] = target: GlcNAc(b1-3)Gal(b1-4)GlcNAc(b1-3)GalNAc
# How it was run: as §1
# [30] = target: GlcNAc(b1-3)Gal(b1-4)GlcNAc(b1-3)[GlcNAc(b1-3)Gal(b1-4)GlcNAc(b1-3)]GalNAc
# How it was run: as §1
# [31] = target: GlcNAc(b1-3)Gal(b1-4)GlcNAc(b1-6)[Gal(b1-3)]GalNAc
# How it was run: as §1
# [32] = target: GlcNAc(b1-3)Gal(b1-4)GlcNAc(b1-6)[GlcNAc(b1-3)Gal(b1-3)]GalNAc
# How it was run: as §1
# [33] = target: GlcNAc(b1-3)Gal(b1-4)GlcNAc(b1-6)[GlcNAc(b1-3)]Gal(b1-4)GlcNAc
# How it was run: as §1
# GlcNAc(b1-3)GalNAc = target: GlcNAc(b1-3)GalNAc
# How it was run: as §1
binder,measurement,setting,value
Cohesin-mDCIR (Macaca mulatta) (protein) GLDDLDAVRIKVDTVNAKPGDTVRIPVRFSGIPSKGIANCDFVYSYDPNVLEIIEIEPGDIIVDPNPDKSFDTAVYPDRKIIVFLFAEDSGTGAYAITKDGVFATIVAKVKEGAPNGLSVIKFVEVGGFANNDLVEQKTQFFDGGVNVGDTTEPATPTTPVTTPTTTDDLDAASFQKYSQLLEKMTTKDLVHTTLECVKKNMTTEETAWSCCPKNWKPFSSNCYFISTESASWQKSEKDCARMEAHLLVINTREEQDFIFQNLQEESAYFVGLSDPEGQRHWQWVDRTPYNESSTFWHPHEPSDPDERCVVLNFRKTPKRWGWNDVHCIVHQRSVCEMMKIHLHHHHHH,glycan array binding signal (z-score),[1],-0.235
same,glycan array binding signal (z-score),[2],-0.313
same,glycan array binding signal (z-score),[3],-0.342
same,glycan array binding signal (z-score),[4],-0.401
same,glycan array binding signal (z-score),[5],-0.397
same,glycan array binding signal (z-score),[6],-0.275
same,glycan array binding signal (z-score),[7],-0.337
same,glycan array binding signal (z-score),[8],-0.411
same,glycan array binding signal (z-score),[9],-0.404
same,glycan array binding signal (z-score),[10],-0.261
same,glycan array binding signal (z-score),[11],-0.386
same,glycan array binding signal (z-score),[12],-0.348
same,glycan array binding signal (z-score),GlcNAc(b1-3)Fuc,-0.44
same,glycan array binding signal (z-score),GlcNAc(b1-3)Gal,-0.352
same,glycan array binding signal (z-score),[13],-0.394
same,glycan array binding signal (z-score),GlcNAc(b1-3)Gal(b1-4)Glc,-0.374
same,glycan array binding signal (z-score),[14],-0.409
same,glycan array binding signal (z-score),[15],-0.413
same,glycan array binding signal (z-score),[16],-0.259
same,glycan array binding signal (z-score),[17],-0.258
same,glycan array binding signal (z-score),[18],-0.419
same,glycan array binding signal (z-score),[19],0.879
same,glycan array binding signal (z-score),[20],0.003
same,glycan array binding signal (z-score),[21],-0.323
same,glycan array binding signal (z-score),[22],-0.414
same,glycan array binding signal (z-score),[23],-0.344
same,glycan array binding signal (z-score),[24],-0.341
same,glycan array binding signal (z-score),[25],0.383
same,glycan array binding signal (z-score),[26],0.153
same,glycan array binding signal (z-score),[27],-0.335
same,glycan array binding signal (z-score),[28],-0.446
same,glycan array binding signal (z-score),[29],-0.361
same,glycan array binding signal (z-score),[30],-0.436
same,glycan array binding signal (z-score),[31],-0.228
same,glycan array binding signal (z-score),[32],-0.421
same,glycan array binding signal (z-score),[33],-0.317
same,glycan array binding signal (z-score),GlcNAc(b1-3)GalNAc,-0.311
